Assay results taken from article PMC4336329 (PLoS ONE, 2015).
Screen size: about 310,000 compounds; about 14,000 (4.5%) showed an effect of 50% or more. The effect is printed as a negative number. Some of the results follow.

Each compound was assayed against human ether-à-go-go-related gene (hERG) potassium channel (human, UniProt Q12809) (assay: primary screen, population patch clamp on CHO cells stably expressing hERG).
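Further: peak tail current of the secondary pulse compared with the same well before compound.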

Sequence of human ether-à-go-go-related gene (hERG) potassium channel (Q12809 whole entry, looked up): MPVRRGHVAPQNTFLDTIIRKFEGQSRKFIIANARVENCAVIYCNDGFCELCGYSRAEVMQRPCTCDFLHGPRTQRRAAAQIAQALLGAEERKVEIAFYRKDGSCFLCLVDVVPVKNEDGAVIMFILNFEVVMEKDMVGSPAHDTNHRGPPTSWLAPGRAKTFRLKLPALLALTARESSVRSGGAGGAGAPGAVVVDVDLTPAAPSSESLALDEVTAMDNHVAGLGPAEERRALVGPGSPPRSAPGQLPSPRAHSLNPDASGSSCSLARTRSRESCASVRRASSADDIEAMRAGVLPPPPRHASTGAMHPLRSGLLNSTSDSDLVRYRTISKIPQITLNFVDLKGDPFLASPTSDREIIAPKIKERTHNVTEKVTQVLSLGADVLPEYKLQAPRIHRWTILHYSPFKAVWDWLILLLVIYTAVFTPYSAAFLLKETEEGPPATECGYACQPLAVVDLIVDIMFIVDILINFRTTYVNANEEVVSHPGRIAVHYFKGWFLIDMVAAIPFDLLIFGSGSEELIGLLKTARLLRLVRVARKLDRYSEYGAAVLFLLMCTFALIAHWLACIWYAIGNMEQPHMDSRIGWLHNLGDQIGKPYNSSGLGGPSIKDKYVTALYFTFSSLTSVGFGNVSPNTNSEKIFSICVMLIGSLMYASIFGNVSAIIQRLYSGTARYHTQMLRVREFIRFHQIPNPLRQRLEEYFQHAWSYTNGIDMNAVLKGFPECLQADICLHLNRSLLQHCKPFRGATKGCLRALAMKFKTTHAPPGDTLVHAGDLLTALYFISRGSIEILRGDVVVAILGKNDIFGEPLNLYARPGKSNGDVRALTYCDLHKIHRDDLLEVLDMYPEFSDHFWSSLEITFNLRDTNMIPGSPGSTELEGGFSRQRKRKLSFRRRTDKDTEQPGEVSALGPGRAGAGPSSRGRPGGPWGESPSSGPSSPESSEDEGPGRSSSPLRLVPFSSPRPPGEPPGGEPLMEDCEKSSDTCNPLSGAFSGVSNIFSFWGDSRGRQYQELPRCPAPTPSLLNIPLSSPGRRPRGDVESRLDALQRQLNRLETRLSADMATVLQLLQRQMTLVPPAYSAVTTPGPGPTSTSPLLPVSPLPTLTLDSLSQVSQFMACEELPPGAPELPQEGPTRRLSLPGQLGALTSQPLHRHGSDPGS

Point of comparison: `Cn1nnnc1SCC(=O)c1ccc(Br)s1`, “hERG current change (%, negative = inhibition) at 10uM” value 3.42%. Against it:
- CN=C(Nc1cccnc1)c1ccccc1 — higher, 15.6%
- CCc1ccccc1-n1c(SCC(=O)Nc2ccc3c(c2)OCCO3)nc2[nH]ncc2c1=O — higher, 7.25%
- COc1c(Br)cc2c(C)c(C(=O)N3CCOCC3)oc2c1Br — lower, 0.976%
- CC(Sc1nc(N)cc(N)n1)C(=O)NCC1CCCO1 (centres unmarked) — higher, 10.2%
- CCC(c1nnc(SCC(=O)Nc2cccc(S(N)(=O)=O)c2)n1Cc1ccccc1)N(C)C (centres unmarked) — higher, 8.5%
- CCOC(=O)CC[NH3+].[Cl-] — higher, 9.06%
- O=C(O)CC/C(=N/Nc1ccc([N+](=O)[O-])cc1)C(=O)O — higher, 20.4%
- COc1ccc(NC(=O)COC(=O)Cn2cnc3ccccc3c2=O)cc1OC — lower, 2.68%
- COc1cc(C(C)=O)ccc1OCc1cc(C(=O)N2CCSCC2)no1 — higher, 13.1%
- c1cnc(Nc2nc(-c3ccc4ccccc4c3)cs2)nc1 — higher, 15.5%
- O=C(c1c(F)cccc1F)N1CCCC(c2nc(-c3ccc(F)cc3)no2)C1 (centres unmarked) — lower, -6.69%
- CC1CN(CC(O)COC2CCC(C(C)(C)C)CC2)CC(C)O1.Cl (centres unmarked) — higher, 5.86%
- CC(=O)Nc1ccc(SCC(=O)Nc2oc(C)c3c(C)n[nH]c(=O)c23)cc1 — higher, 8.72%
- CCN(CC(=O)Nc1ccccc1OC)C(=O)CCc1ccccc1 — lower, -7.86%
- O=C(NCc1ccccc1)c1cncc(Br)c1 — lower, -6.81%
- COc1ccc(/C=C2/SC(=O)NC2=O)cc1 — higher, 11.1%
- COc1cc([N+](=O)[O-])cc2cc(C(=O)N3CCN=C3c3ccccc3)c(=O)oc12 — lower, -0.402%
- COC(=O)/C=c1\[nH]c2nnc(C)n2c1=O — higher, 5.25%
- Cc1cccc(NC(=S)NNC(=O)c2ccc(Br)o2)c1 — higher, 19.3%
- CC(C)(C)SCCNC(=O)CN1C(=O)c2cccc3cccc1c23 — higher, 15.8%
- Cc1nonc1OCCNCc1c(C(=O)N(C)C)nc2ccc(Cl)cn12 — higher, 6.49%
- Cc1ccc(NC(=S)N2CCSC2c2cccs2)cc1 (centres unmarked) — higher, 10.2%
- Cc1cccc(C)c1NC(=O)/C(=C/c1ccco1)c1ccccc1 — lower, -8.26%
- Cc1cccc2cc(CN(Cc3ccc(F)cc3)Cc3nnnn3C3CCCC3)c(=O)[nH]c12 — lower, -3.2%
- CN1CCN(C(=O)CSc2nnc(COc3ccc(Cl)cc3)o2)CC1 — lower, -8.74%
- CCc1cc2c(=O)c(-c3cscn3)coc2c(CN(C)C)c1O — higher, 8.84%
- O=C(CSc1nccn1Cc1ccco1)Nc1ccccc1C(F)(F)F — lower, 2.5%
- COc1ccc(/C=C2\CCC(C3CCCC3)C2=O)cc1 (centres unmarked) — higher, 14.9%
- CCC(=O)c1ccc(OC(=O)N2CCOCC2)cc1 — higher, 3.44%
- COc1cc2c(cc1OC)/C(=C/c1ccc(Cl)cc1)C(=O)OC2 — lower, -36.4%
- COc1cc(C(=O)Nc2ccc(C(N)=O)cc2)c([N+](=O)[O-])cc1OC — higher, 24.2%
- O=C(CC(NC(=O)c1ccccc1Cl)c1ccccc1)NC1=NCCS1 (centres unmarked) — higher, 3.69%
- CNc1n[nH]c(=S)s1 — higher, 7.02%
- CN1CCN(c2ccc(C(=O)c3ccccc3)cc2[N+](=O)[O-])CC1 — lower, -53.1%
- Cn1c(=O)c(=O)n(C)c2cc(S(=O)(=O)N3CCCC3C(=O)Nc3ccccc3F)ccc21 (centres unmarked) — lower, -34.1%
- Cc1ccc(S(=O)(=O)NC(C)C(c2cccs2)N2CCN(C)CC2)cc1 (centres unmarked) — lower, -18%
- O=C(CCc1ccccc1)NNC(=O)c1ccc(Cl)cc1 — higher, 11.9%
- O=C(N/N=C\c1ccc(-c2ccccc2[N+](=O)[O-])o1)C1COc2ccccc2O1 (centres unmarked) — lower, -11.6%
- O=C(CNC(=O)c1ccco1)OCC(=O)c1ccc(Br)cc1 — lower, -1.87%
- Br.CCc1nnc2n1N=C(c1cccc([N+](=O)[O-])c1)CS2 — lower, -32.1%
- CC(=O)N1c2c(cc(Br)cc2S(=O)(=O)NCc2cccnc2)CC1C (centres unmarked) — higher, 5.7%
- Cc1ccc(-c2cc(-c3ccc(C)o3)nc(N)c2C#N)cc1 — lower, -0.412%
- Cc1ccc2c(c1)nnn2C1CCN(CC(=O)Nc2ccc3c(c2)OCCO3)CC1 — lower, -55.5%
- Cc1c(O)cc2n(c1=O)-c1ccccc1C2(C)C — higher, 11.5%
- Cc1ccccc1CNc1ncnc2cc(Cl)ccc12 — higher, 16.4%
- CC(=O)c1cccc(NS(=O)(=O)c2csc(C(N)=O)c2)c1 — higher, 22.4%
- CC(NC(=O)c1ccccc1SCC(=O)N1CCCC1)c1ccccc1 (centres unmarked) — lower, -26.1%
- COc1ccc(NC(=O)CS(=O)(=O)c2ccc(F)cc2)cc1 — higher, 15.9%
- CCc1ccc(NC(=O)CS(=O)CC(=O)Nc2ccc(F)cc2F)cc1 (centres unmarked) — lower, -0.916%
- CCOC(=O)N1CCN(S(=O)(=O)c2ccc(C(=O)NNc3nc4ccc(Cl)cc4s3)cc2)CC1 — lower, 2.66%
- CCN(CC)S(=O)(=O)c1cccc(C(=O)N[C@H](C(=O)Nc2nc3ccc(F)cc3s2)C(C)C)c1 — lower, -13.9%
- CC(Cc1ccccc1)C(=O)NCc1nc2ccccc2s1 (centres unmarked) — lower, -6.61%
- Cc1ccc(NC(=O)c2cc([N+](=O)[O-])ccc2NCc2cccnc2)cc1Cl — lower, -41.7%
- COC(=O)Cc1ccc(NC(=S)NCc2ccccc2Cl)cc1 — lower, -6.56%
- CC(C(=O)c1ccc2ccccc2c1)N1CCCCC1 (centres unmarked) — lower, -21.4%
- CCCOc1ccccc1C(=O)NCCCC(=O)O — higher, 12.2%
- Cc1cc(Cl)ccc1NC(=S)N1CCN(C(=O)c2ccco2)CC1 — lower, -8.95%
- CCOC(=O)c1c(NC(C)=O)sc2c1CCC(C=NCCCN(CC)CC)=C2Sc1ccccc1 — higher, 5.55%
